# Laboratory results as given in article PMC4336329 (PLoS ONE, 2015).
# The campaign covered roughly 310,000 compounds. About 2,200 (0.71%) showed an effect of 50% or more. The effect is printed as a negative number. The list shows a part of the results.
# Target: human ether-à-go-go-related gene (hERG) potassium channel (human, UniProt Q12809)
# Assay: primary screen, population patch clamp on CHO cells stably expressing hERG
# human ether-à-go-go-related gene (hERG) potassium channel, sequence (Q12809 whole entry, looked up): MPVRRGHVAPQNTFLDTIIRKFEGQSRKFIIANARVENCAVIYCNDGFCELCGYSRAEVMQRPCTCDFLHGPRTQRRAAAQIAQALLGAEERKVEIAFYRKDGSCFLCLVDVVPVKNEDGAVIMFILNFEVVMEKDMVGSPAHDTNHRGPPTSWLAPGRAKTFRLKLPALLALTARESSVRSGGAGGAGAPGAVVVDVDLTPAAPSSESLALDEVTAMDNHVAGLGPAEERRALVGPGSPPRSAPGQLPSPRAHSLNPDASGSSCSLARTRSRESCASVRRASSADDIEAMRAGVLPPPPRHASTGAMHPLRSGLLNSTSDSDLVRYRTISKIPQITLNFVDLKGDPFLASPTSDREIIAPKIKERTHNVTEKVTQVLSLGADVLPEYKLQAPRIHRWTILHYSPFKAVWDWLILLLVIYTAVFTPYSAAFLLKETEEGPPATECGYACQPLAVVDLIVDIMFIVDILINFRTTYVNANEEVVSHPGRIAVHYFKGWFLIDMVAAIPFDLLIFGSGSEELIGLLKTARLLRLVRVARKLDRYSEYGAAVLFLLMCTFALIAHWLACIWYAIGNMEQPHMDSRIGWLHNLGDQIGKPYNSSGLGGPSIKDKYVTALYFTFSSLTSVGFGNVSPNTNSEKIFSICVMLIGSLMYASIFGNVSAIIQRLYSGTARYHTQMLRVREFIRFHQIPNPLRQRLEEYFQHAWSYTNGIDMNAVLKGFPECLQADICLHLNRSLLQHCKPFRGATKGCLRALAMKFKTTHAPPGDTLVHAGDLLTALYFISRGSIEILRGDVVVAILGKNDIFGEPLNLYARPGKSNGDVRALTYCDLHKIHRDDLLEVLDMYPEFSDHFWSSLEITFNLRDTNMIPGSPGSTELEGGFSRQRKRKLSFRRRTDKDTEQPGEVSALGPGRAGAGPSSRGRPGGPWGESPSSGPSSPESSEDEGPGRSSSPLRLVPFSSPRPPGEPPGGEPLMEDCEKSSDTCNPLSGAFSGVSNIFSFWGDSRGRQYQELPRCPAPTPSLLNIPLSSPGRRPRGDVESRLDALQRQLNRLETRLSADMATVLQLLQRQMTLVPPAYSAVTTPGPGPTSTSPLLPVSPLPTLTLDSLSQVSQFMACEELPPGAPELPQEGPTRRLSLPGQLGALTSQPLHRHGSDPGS
row,Structure (SMILES),"hERG current change (%, negative = inhibition) at 1uM [%]"
1,CC(C)CN1C(=O)C(NC(=O)C2CC2)(C(F)(F)F)C2=C1CC(C)(C)CC2=O (centres unmarked),7.23
2,Cc1cccc(NC(=O)c2cc3ccccc3o2)c1,-10.9
3,CC(C)NS(=O)(=O)c1ccc(OCC(=O)NCC2CCCO2)c(Cl)c1 (centres unmarked),-2.21
4,CC1CCCCN1S(=O)(=O)c1ccc(C(=O)N2CCOCC2)cc1 (centres unmarked),14.9
5,COc1ccc(-c2cc(C(=O)Nc3ccc(C)c(N)c3)c3ccccc3n2)cc1,13.7
6,Cl.c1ccc2c(c1)oc1c(Nc3ccc(CN4CCOCC4)cc3)ncnc12,-23
7,Cc1cc(C)cc(NC(=O)C/C(N)=N/O)c1,11.4
8,CC(C)(C)c1ccccc1N=Cc1ccc2ccccc2n1,13.7
9,OCc1ncc(-c2ccccc2)s1,8.92
10,O=C(NCCC1=CCCCC1)c1cnc2n(c1=O)CCS2,-26
11,c1ccc(N2CCN(c3ncnc4c3oc3ccccc34)CC2)cc1,13.1
12,CC(C)(C)C(=O)NC(c1ccccc1)c1c(O)ccc2ccccc12 (centres unmarked),22.3
13,COc1ccc(OCC(=O)N2CCN(S(=O)(=O)c3ccc(Cl)cc3)CC2)cc1,-17.7
14,CCOc1ccc(-n2c(-c3ccc(Br)cc3)c[n+]3c2CCCCC3)cc1.[Br-],-46.5
15,O=C(NCCO)/C(=C/c1ccco1)NC(=O)c1ccco1,11.4
16,COc1cc2c(c(OC)c1)C(c1cccc(OC)c1OC)CC(=O)N2 (centres unmarked),6.36
17,Cc1cccc(C)c1NC(=S)NC(=O)CCc1ccccc1,6.68
18,CN(C)c1ccc2c(=O)[nH][nH]c(=O)c2c1,14.5
19,O=C(NC1CC2CCCC(C1)N2Cc1ccc(F)cc1)c1ccc(F)cc1 (centres unmarked),-38.3
20,COc1ccc(CCC(=O)Nc2ccc(S(=O)(=O)Nc3ncccn3)cc2)cc1,8.82
21,CNS(=O)(=O)c1cccc(C(=O)OCc2cc(=O)n3cc(Br)ccc3n2)c1,-0.714
22,Cc1ccc(SCCC(=O)N2CCCC2)cc1,8.86
23,CCN1CCN(CC(=O)Nc2ccc(Cl)c(Cl)c2)C(=O)C1=O,7.8

row,Structure (SMILES),"hERG current change (%, negative = inhibition) at 1uM [%]"
1,COC(=O)C1=C(c2ccc(C(C)=O)cc2)C[C@@H]2CC[C@H]1N2C(=O)NCc1ccc(C(F)(F)F)cc1,20.4
2,CCCN(C(=O)CCSc1ccc(F)cc1)c1c(N)n(Cc2ccccc2)c(=O)[nH]c1=O,5.67
3,O=C(CN1CCN(S(=O)(=O)c2ccc(Cl)cc2)CC1)Nc1ccc2c(c1)OCO2,-17.3
4,Cc1[nH]c(=O)[nH]c(=O)c1S(=O)(=O)N1CCN(c2ccccc2F)CC1,7.18
5,Cc1ccc(SCCCCN2CCOCC2)cc1.Cl,10.8
6,CC(=O)Nc1ccc(NC(=O)C2CCN(c3ccc(C(F)(F)F)cn3)CC2)cc1,12.2
7,CCN(c1ccc(NC(=O)COC(=O)CCC(=O)c2ccc(F)cc2)cc1)C(C)C,4.98
8,O=C(CS(=O)c1ccccc1[N+](=O)[O-])Oc1ccc(Br)cc1 (centres unmarked),13.9
9,COc1ccc(C(=O)N2CCC(n3c(C)nc4cc(F)ccc43)CC2)cc1,-44.5
10,CCCSC1=C(C#N)C(c2cccs2)CC(=O)N1 (centres unmarked),8.8
11,CN(CCc1ccccn1)C(=O)c1nn2c(C(F)(F)F)cc(-c3ccco3)nc2c1Cl,-16.7
12,CC(=O)N1CCN=C1SCc1ccc(Br)cc1,0.672
13,O=C(NCc1nnc(SC/C=C/c2ccccc2)o1)c1ccco1,8.31
14,CCN(CC)CCCNS(=O)(=O)c1ccc(OC)cc1,15
15,CCCCn1c(N)c(N(CC)C(=O)c2ccccc2C(F)(F)F)c(=O)[nH]c1=O,16.8
16,Cc1ccc(CC(CC(=O)O)C(=O)NCC23CC4CC(CC(C4)C2)C3)cc1 (centres unmarked),11.5
17,CC(C)OC(=O)c1c(-c2ccc(C(C)C)cc2)csc1NC(=O)C1CCCO1 (centres unmarked),11.7
18,CCCN(CC(=O)Nc1ccccc1OC)C(=O)Cn1[nH]c(=O)c2ccccc2c1=O,9.03
19,Cc1ccc(C(=O)N2CCN(c3ncccn3)CC2)cc1S(=O)(=O)N1CCCCC1,7.45
20,CCCCn1c(NC(=S)Nc2ccccc2)nc2ccccc21,3.56
21,O=C(NCc1n[nH]c(=O)c2ccccc12)C1CC(=O)N(c2ccc(Cl)cc2)C1 (centres unmarked),-9.93
22,CN(C)C(CNC(=O)CCc1nc2sc3c(c2c(=O)[nH]1)CCCC3)c1ccccc1 (centres unmarked),7.35
23,COC(=O)COc1ccc(S(=O)(=O)Nc2ccc3c(c2)OCCO3)cc1C,17.2

row,Structure (SMILES),"hERG current change (%, negative = inhibition) at 1uM [%]"
1,CN(C)S(=O)(=O)c1ccc(C(=O)NCCN=C2NS(=O)(=O)c3ccccc32)cc1,19
2,COc1ccc(Br)c(C(=O)NCCC(C)C)c1,12.1
3,COc1ccc(C(=O)NNC(=O)C2CCN(S(=O)(=O)c3ccc(C)cc3)CC2)cc1,7.33
4,Cc1ccc(C(=O)C(C)OC(=O)C2CC(=O)N(C3CCCCC3)C2)cc1 (centres unmarked),9.68
5,CC(=O)c1cccc(NC(=O)c2ccc(C(=O)Nc3cccc(C(C)=O)c3)nc2)c1,13
6,Cc1ccc2c(CC(=O)Nc3c(C)n(C)n(-c4ccccc4)c3=O)coc2c1,7.79
7,C/C(CC(=O)Nc1ccccc1C)=N\NC(=O)Cc1csc(N)n1.CC(C)O,4.79
8,CC(=O)Oc1ccc(C(=O)Nc2ccccc2C(=O)Nc2ccc(C(=O)O)cc2)cc1,17.6
9,S=c1[nH]nc(Nc2ccccc2)s1,11.8
10,CCn1c(CCNC(=O)c2ccc(OC)cc2)nnc1SCc1ccc(Cl)cc1Cl,-38.2
11,O=C(NNc1ccccn1)C(c1ccccc1)c1ccccc1,11.9
12,Cc1nnc(NC(=O)CCn2c(=O)oc3ccccc32)s1,17.9
13,O=C(NCCN1CCOCC1)/C(=C\c1ccc(F)cc1)NC(=O)c1ccccc1,-51.7
14,S=C(Nc1ccc2nsnc2c1)N1CCCC1,15.5
15,CCCn1cnc2scc(-c3ccc(OC)cc3)c2c1=O,8.19
16,NC(=O)C1CCN(C(=O)N2c3ccccc3Sc3ccccc32)CC1,0.149
17,C=CCN(C)NC(=O)Nc1ccccc1,10.6
18,CCN(CC)C(=O)C1CCCN(Cc2cccc(Oc3ccccc3)c2)C1 (centres unmarked),1.85
19,CCOC(=O)C1CCCN(C(=O)Cn2sc3nc(C)cc(C)c3c2=O)C1 (centres unmarked),11.5
20,COc1ccccc1NC(=O)NCCCN1CCN(c2cccc(Cl)c2)CC1,-29
21,COc1ccc(-c2oc(=O)c3cc(OC)c(OC)cc3c2C(F)(F)F)cc1,15.6
22,C/C(=N\NC(=O)c1cccc(S(=O)(=O)N2CCCC2)c1)c1ccccc1F,8.6
23,Cc1ccc(S(=O)(=O)N2CCN(C(=O)COC(=O)/C=C/c3ccccc3)CC2)c(C)c1,3.37

row,Structure (SMILES),"hERG current change (%, negative = inhibition) at 1uM [%]"
1,O=C(NCc1ccco1)c1c(F)cccc1Cl,17.3
2,O=C(Nc1ccc(NC(=S)NC(=O)c2ccccc2Cl)cc1)c1cccc(Cl)c1,13.9
3,CC1CN(C(=O)c2cc3c(s2)CCC3)CC(C)O1 (centres unmarked),0.87
4,Nc1nc2n(n1)C(c1cccc(Br)c1)CC(c1ccccc1)N2 (centres unmarked),-11.7
5,O=C(O)C1CC(O)CN1c1nc(Cl)ccc1[N+](=O)[O-] (centres unmarked),3.79
6,CC(C)CCOc1ccc(C2(C)NC(=O)NC2=O)cc1 (centres unmarked),3.62
7,O=C(O)C(=O)O.O=C(c1ccccc1)c1ccc(OCC(O)CNCc2ccc(Cl)cc2)cc1 (centres unmarked),0.916
8,COc1ccc(C(C)=O)cc1CC(C(=O)c1ccccc1)N(C)C.Cl (centres unmarked),1
9,CC(=O)N1CCN(C(=S)c2ccc(N(C)C)cc2)CC1,7.9
10,Cc1ccc(NC(=S)NNC(=O)c2nn(C)cc2Cl)cc1,2.59
11,O=C1NC(c2cc3c(cc2Cl)OCO3)Oc2ccccc21 (centres unmarked),-1.94
12,Cc1ccc2nc(SCc3nc4ccccc4c(=O)[nH]3)[nH]c2c1,9.36
13,Cc1ccc(S(=O)(=O)N(C)C)cc1NC(=O)c1cc(=O)[nH]c2ccccc12,15.4
14,CCc1nn(CCCC(=O)NCc2ccco2)c(=O)c2cc3occc3n12,-3.38
15,Cc1cccc(N2CCN(CC(=O)Nc3ccc(-n4cnnn4)cc3)CC2)c1C,12.5
16,COc1ccc(/C=N/NC(=O)c2nc(-c3ccccc3)cc(-c3ccccc3)n2)cc1OC,1.66
17,COc1ccc(C(=O)CSc2nc3ncccc3[nH]2)cc1OC,13.6
18,CC(C)(CNC(=O)c1ccc(S(=O)(=O)Nc2ccc(Cl)cc2)cc1)N1CCOCC1,-5.89
19,COc1ccc(C(=O)NC(C)c2nc3ccccc3n2C)cc1OC (centres unmarked),-7.35
20,O=C(OCC#CCSc1nc2ccccc2s1)c1ccco1,-2.51
